The BET-seq Pho4 binding data (Le et al. 2018)
This is one part of the list. The energies were worked out here from pooled read counts, against the library average; single values are noisy.

The sequences below were run against T1, Pho4 (S. cerevisiae) (UniProt P07270) (assay: relative binding free energy (BET-seq); higher = weaker binding). Settings: reference: library average.
T1 sequence: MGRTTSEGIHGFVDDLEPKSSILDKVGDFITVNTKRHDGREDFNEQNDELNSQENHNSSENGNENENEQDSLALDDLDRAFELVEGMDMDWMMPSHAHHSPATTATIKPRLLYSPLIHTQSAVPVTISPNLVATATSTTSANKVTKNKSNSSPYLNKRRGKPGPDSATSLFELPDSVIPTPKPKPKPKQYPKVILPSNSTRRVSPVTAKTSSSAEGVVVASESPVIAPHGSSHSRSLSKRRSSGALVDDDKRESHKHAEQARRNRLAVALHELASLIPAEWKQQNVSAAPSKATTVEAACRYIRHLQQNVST

Row | Sequence | relative binding free energy [kcal/mol]
1 | AGTTGCACGTGGGGGC | -0.11
2 | AATTGCACGTGGGAGT | -0.04
3 | TTGTACACGTGACATG | 0.12
4 | ATTTTCACGTGGTCTC | 0.24
5 | TGATGCACGTGGGAGG | -0.11
6 | ATATTCACGTGAAATT | 0.32
7 | TTTTACACGTGATTAG | 0.25
8 | CGGGGCACGTGGTGCT | -0.39
9 | TGTATCACGTGCAGAA | 0.14
10 | AAGTGCACGTGGAGGG | -0.03
11 | ACGGGCACGTGTGCGT | -0.13
12 | CTTAGCACGTGATTGG | 0.03
13 | ACAGTCACGTGGGCGT | -0.05
14 | AGGGTCACGTGTCATT | 0.09
15 | TGAGTCACGTGAGGGT | 0.34
16 | CGGAGCACGTGGTTTG | -0.12
17 | AGTATCACGTGTTACG | 0.18
18 | AGGCGCACGTGGGAGT | -0.2
19 | AGATACACGTGTATGG | 0.12
20 | TTGTGCACGTGTGCTG | 0.06
21 | TTTGTCACGTGGTTCT | 0.23
22 | TCAGTCACGTGGATGG | 0.05
23 | GTTCGCACGTGCTGGG | 0.02

Row | Sequence | relative binding free energy [kcal/mol]
24 | ATAATCACGTGAGTGG | 0.13
25 | TGAAACACGTGATAGG | 0.11
26 | TAGAGCACGTGTGCGT | -0.17
27 | AGTAGCACGTGAGCTT | 0.14
28 | TCATGCACGTGGTGTC | -0.1
29 | AGTCCCACGTGGGGGT | -0.27
30 | TTGCGCACGTGTATTT | -0.1
31 | AATGGCACGTGGTGCG | -0.23
32 | TCTATCACGTGTTTAT | 0.18
33 | TAGTCCACGTGTGTCG | 0.05
34 | AGGTACACGTGAATTA | 0.24
35 | GTTTACACGTGGTACG | 0.14
36 | GGGGACACGTGCGGGG | -0.04
37 | GTTTGCACGTGCTTTC | 0.16
38 | TGCGTCACGTGGCGGA | -0.01
39 | TTGTGCACGTGGAGCA | -0.02
40 | GGGTCCACGTGAGGTG | 0.17
41 | ATGGGCACGTGCTGTA | -0.3
42 | TTTGGCACGTGTTTCT | 0.06
43 | TAGCACACGTGGATGG | 0.05
44 | GGAGGCACGTGAGGCT | 0.17
45 | CGTAGCACGTGTGGTG | 0.01
46 | ACAGGCACGTGGTTGG | -0.22

Row | Sequence | relative binding free energy [kcal/mol]
47 | CCTGGCACGTGTGGGA | -0.13
48 | GTAGTCACGTGTTCGT | -0.01
49 | TGATTCACGTGGGATG | 0.17
50 | GGATTCACGTGCGCGG | 0.14
51 | TAGTGCACGTGTATTC | 0.06
52 | GATGTCACGTGTGCAT | 0.1
53 | TACGGCACGTGGCTGG | -0.08
54 | TGTGACACGTGTAAGA | 0.22
55 | TGGGCCACGTGTAGAG | 0.11
56 | ATTAGCACGTGTGCTT | -0.06
57 | GGAGCCACGTGGGCGG | -0.27
58 | CGGTTCACGTGGTAAA | 0.25
59 | TGAGGCACGTGTTGGC | -0.12
60 | GTTGTCACGTGAGTCT | 0.17
61 | GTGGGCACGTGCTTGG | -0.01
62 | TAATGCACGTGAGGGT | 0.17
63 | ATTATCACGTGTATAA | 0.15
64 | CTAGTCACGTGTGGCT | 0.09
65 | AGGGCCACGTGACGGT | 0.02
66 | ATTATCACGTGTGCTG | 0.24
67 | TTAATCACGTGGTCGA | -0.01
68 | GGGAGCACGTGTGCTT | -0.02
69 | GAAGGCACGTGTGTCT | -0.05

Row | Sequence | relative binding free energy [kcal/mol]
70 | GGGGTCACGTGGGAAC | 0.14
71 | AAGTACACGTGTGGCT | 0.17
72 | TGCTGCACGTGCGGGG | -0.07
73 | TAGGACACGTGGTGCG | -0.21
74 | GGAGACACGTGTGGTC | 0.08
75 | TGAGGCACGTGCAGGT | -0.13
76 | GTGGTCACGTGTTCAC | 0.21
77 | TGGCTCACGTGGTAGG | 0.22
78 | ATGGGCACGTGATGTG | 0.09
79 | AGTCGCACGTGTTGTG | 0.01
80 | AGTTTCACGTGCCGTG | 0.28
81 | TTCTTCACGTGTTGGG | 0.33
82 | GCTATCACGTGGTTAG | 0.21
83 | AGCTACACGTGGGGCG | -0.01
84 | GTGGGCACGTGTCTAT | -0.08
85 | AGGAGCACGTGTTTCG | -0.08
86 | GTGAACACGTGAGTAG | 0.37
87 | TCTTGCACGTGGGCGT | -0.07
88 | TATATCACGTGGGGAA | 0.07
89 | GTTGACACGTGAGGTG | 0.23
90 | TGGGTCACGTGTGAAA | 0.1
91 | GATGTCACGTGGAGCG | 0.27
92 | GCGTTCACGTGCGTTT | 0.38

Row | Sequence | relative binding free energy [kcal/mol]
93 | TGCAGCACGTGGAGCG | -0.13
94 | CTTTACACGTGTATTT | 0.23
95 | GGTTTCACGTGGAAGG | 0.39
96 | TTGTACACGTGGTAGT | 0.02
97 | AGTTCCACGTGTCAGG | 0.18
98 | GGGTTCACGTGTCTGC | 0.24
99 | GGTATCACGTGGGAGA | 0.12
100 | AGGGACACGTGGCCTG | -0.12
101 | TCGGGCACGTGAGAGT | 0.19
102 | CTGGTCACGTGAGAGG | 0.32
103 | TTTGTCACGTGGGAAC | -0.08
104 | CGCTTCACGTGTTTGT | 0.19
105 | ATACGCACGTGTTTGG | -0.19
106 | TTAGGCACGTGAGAAA | 0.19
107 | TCGGACACGTGCGGTT | 0.03
108 | TTAGGCACGTGTAACG | -0.1
109 | TATAGCACGTGTTGCA | 0
110 | TAGATCACGTGTTAGT | 0.13
111 | AGTAACACGTGTTGAG | 0.13
112 | ATACGCACGTGGTATG | -0.15
113 | CTAGGCACGTGATATG | -0.07
114 | ATATGCACGTGTACTG | 0.01
115 | CAAGGCACGTGGTGGA | -0.27
